# Results are given in words; binding and its absence hold for the method and conditions named. For part of these data: Binding seen in cells or lysates may run through a third protein. Some results given as binding are weak or reduced against the parent protein; the word gives no strength. Where a sequence is shown, tags or fusion partners need not be part of it.
# T1: Glycerol-3-phosphate dehydrogenase 1 (Gpd1), tagged with GFP or HA at the carboxy-terminus (S. cerevisiae) (UniProt Q00055)
# T1 sequence: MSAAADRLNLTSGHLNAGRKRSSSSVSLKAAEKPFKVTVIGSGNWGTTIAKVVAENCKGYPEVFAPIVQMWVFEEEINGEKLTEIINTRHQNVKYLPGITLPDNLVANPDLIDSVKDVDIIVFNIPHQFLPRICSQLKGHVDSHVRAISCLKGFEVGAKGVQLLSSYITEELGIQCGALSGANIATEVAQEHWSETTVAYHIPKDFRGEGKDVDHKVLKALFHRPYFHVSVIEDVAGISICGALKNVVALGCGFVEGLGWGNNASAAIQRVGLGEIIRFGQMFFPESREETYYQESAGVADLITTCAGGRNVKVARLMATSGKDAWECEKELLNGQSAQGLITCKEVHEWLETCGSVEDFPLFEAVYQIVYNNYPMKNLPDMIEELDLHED
# T2: Gpd1R270E-GFP (S. cerevisiae) (UniProt Q00055)
# T2 sequence: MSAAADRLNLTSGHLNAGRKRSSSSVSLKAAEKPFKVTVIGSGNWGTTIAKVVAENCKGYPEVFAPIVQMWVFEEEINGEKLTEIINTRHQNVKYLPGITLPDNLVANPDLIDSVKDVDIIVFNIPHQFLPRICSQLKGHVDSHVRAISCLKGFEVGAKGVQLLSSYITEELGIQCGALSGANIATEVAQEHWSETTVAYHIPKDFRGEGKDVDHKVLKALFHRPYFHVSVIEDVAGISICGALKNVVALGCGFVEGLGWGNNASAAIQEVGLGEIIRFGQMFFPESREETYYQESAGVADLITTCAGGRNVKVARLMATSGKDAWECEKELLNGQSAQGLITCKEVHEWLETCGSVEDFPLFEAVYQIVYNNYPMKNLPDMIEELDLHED
# T3: Gpd1-GFP-PTS1 (S. cerevisiae) (UniProt Q00055)
# T3 sequence: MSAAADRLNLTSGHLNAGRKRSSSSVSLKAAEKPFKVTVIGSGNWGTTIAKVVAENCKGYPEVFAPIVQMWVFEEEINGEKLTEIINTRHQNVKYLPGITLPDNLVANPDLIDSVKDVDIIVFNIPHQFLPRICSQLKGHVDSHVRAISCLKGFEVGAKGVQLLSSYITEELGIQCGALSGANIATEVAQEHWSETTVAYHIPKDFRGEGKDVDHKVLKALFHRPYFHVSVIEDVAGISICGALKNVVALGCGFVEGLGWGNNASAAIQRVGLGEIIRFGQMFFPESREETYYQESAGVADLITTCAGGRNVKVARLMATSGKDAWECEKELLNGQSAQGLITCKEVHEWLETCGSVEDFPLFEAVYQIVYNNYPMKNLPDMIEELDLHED
# T4: ΔN-Gpd1-GFP-PTS1 (S. cerevisiae) (UniProt Q00055)
# T4 sequence: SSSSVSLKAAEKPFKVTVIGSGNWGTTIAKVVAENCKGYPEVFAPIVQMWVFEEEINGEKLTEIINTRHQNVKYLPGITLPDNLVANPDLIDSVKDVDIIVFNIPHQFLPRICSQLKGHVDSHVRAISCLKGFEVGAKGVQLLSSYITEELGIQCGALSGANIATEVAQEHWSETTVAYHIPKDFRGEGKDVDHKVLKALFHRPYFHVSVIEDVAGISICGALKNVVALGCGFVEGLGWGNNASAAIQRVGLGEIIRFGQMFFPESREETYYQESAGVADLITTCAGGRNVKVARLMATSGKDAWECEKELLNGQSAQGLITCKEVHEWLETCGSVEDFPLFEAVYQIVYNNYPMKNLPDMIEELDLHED
# T5: Pex7 two-hybrid fusion (Gal4 transactivation domain and Gal4 DNA binding domain) (S. cerevisiae) (UniProt P39108)
# T5 sequence: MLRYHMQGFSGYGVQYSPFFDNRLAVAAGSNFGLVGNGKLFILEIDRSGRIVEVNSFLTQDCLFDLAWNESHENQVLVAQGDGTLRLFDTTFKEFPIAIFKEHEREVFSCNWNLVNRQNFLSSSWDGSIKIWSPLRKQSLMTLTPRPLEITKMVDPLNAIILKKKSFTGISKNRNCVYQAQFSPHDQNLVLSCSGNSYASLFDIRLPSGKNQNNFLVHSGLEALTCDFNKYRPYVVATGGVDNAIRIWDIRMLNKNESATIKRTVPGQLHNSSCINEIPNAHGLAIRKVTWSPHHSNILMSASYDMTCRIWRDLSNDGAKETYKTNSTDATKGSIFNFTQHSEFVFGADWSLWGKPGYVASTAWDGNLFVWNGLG
# T6: Pnc1 two-hybrid fusion (Gal4 transactivation domain and Gal4 DNA binding domain) (S. cerevisiae) (UniProt P53184)
# T6 sequence: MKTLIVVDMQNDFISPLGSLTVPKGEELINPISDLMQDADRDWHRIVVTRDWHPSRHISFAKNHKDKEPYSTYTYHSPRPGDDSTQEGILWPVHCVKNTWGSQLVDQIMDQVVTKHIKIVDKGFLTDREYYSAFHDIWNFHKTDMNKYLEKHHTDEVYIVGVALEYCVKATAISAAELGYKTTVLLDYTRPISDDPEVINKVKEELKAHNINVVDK
# T7: Pex21 fused to the Gal4 DNA binding domain (S. cerevisiae) (UniProt P50091)
# T7 sequence: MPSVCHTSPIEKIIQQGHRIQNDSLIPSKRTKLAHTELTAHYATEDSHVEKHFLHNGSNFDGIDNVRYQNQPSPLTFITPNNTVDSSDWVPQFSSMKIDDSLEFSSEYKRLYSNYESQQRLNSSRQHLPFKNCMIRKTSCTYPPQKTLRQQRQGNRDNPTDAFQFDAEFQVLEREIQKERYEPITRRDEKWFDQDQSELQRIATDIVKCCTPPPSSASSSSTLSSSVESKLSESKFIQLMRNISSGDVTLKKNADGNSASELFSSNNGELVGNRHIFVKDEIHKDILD
# B1: Glycerol-3-phosphate dehydrogenase 1 (Gpd1), tagged with GFP or HA at the carboxy-terminus (protein, UniProt Q00055 1-391)
# chain: MSAAADRLNLTSGHLNAGRKRSSSSVSLKAAEKPFKVTVIGSGNWGTTIAKVVAENCKGYPEVFAPIVQMWVFEEEINGEKLTEIINTRHQNVKYLPGITLPDNLVANPDLIDSVKDVDIIVFNIPHQFLPRICSQLKGHVDSHVRAISCLKGFEVGAKGVQLLSSYITEELGIQCGALSGANIATEVAQEHWSETTVAYHIPKDFRGEGKDVDHKVLKALFHRPYFHVSVIEDVAGISICGALKNVVALGCGFVEGLGWGNNASAAIQRVGLGEIIRFGQMFFPESREETYYQESAGVADLITTCAGGRNVKVARLMATSGKDAWECEKELLNGQSAQGLITCKEVHEWLETCGSVEDFPLFEAVYQIVYNNYPMKNLPDMIEELDLHED
# B2: Gpd1E195R/R270E, tagged with GFP or HA (protein, UniProt Q00055 1-391)
# chain: MSAAADRLNLTSGHLNAGRKRSSSSVSLKAAEKPFKVTVIGSGNWGTTIAKVVAENCKGYPEVFAPIVQMWVFEEEINGEKLTEIINTRHQNVKYLPGITLPDNLVANPDLIDSVKDVDIIVFNIPHQFLPRICSQLKGHVDSHVRAISCLKGFEVGAKGVQLLSSYITEELGIQCGALSGANIATEVAQEHWSRTTVAYHIPKDFRGEGKDVDHKVLKALFHRPYFHVSVIEDVAGISICGALKNVVALGCGFVEGLGWGNNASAAIQEVGLGEIIRFGQMFFPESREETYYQESAGVADLITTCAGGRNVKVARLMATSGKDAWECEKELLNGQSAQGLITCKEVHEWLETCGSVEDFPLFEAVYQIVYNNYPMKNLPDMIEELDLHED
# B3: Pyrazinamidase/Nictonamidase I (Pnc1), TAP-tagged in the genome (protein, UniProt P53184 1-216)
# chain: MKTLIVVDMQNDFISPLGSLTVPKGEELINPISDLMQDADRDWHRIVVTRDWHPSRHISFAKNHKDKEPYSTYTYHSPRPGDDSTQEGILWPVHCVKNTWGSQLVDQIMDQVVTKHIKIVDKGFLTDREYYSAFHDIWNFHKTDMNKYLEKHHTDEVYIVGVALEYCVKATAISAAELGYKTTVLLDYTRPISDDPEVINKVKEELKAHNINVVDK
# B4: Pnc1 two-hybrid fusion (Gal4 transactivation domain and Gal4 DNA binding domain) (protein, UniProt P53184 1-216)
# chain: MKTLIVVDMQNDFISPLGSLTVPKGEELINPISDLMQDADRDWHRIVVTRDWHPSRHISFAKNHKDKEPYSTYTYHSPRPGDDSTQEGILWPVHCVKNTWGSQLVDQIMDQVVTKHIKIVDKGFLTDREYYSAFHDIWNFHKTDMNKYLEKHHTDEVYIVGVALEYCVKATAISAAELGYKTTVLLDYTRPISDDPEVINKVKEELKAHNINVVDK
# B5: Gpd1 fused to the Gal4 transactivation domain (protein, UniProt Q00055 1-391)
# chain: MSAAADRLNLTSGHLNAGRKRSSSSVSLKAAEKPFKVTVIGSGNWGTTIAKVVAENCKGYPEVFAPIVQMWVFEEEINGEKLTEIINTRHQNVKYLPGITLPDNLVANPDLIDSVKDVDIIVFNIPHQFLPRICSQLKGHVDSHVRAISCLKGFEVGAKGVQLLSSYITEELGIQCGALSGANIATEVAQEHWSETTVAYHIPKDFRGEGKDVDHKVLKALFHRPYFHVSVIEDVAGISICGALKNVVALGCGFVEGLGWGNNASAAIQRVGLGEIIRFGQMFFPESREETYYQESAGVADLITTCAGGRNVKVARLMATSGKDAWECEKELLNGQSAQGLITCKEVHEWLETCGSVEDFPLFEAVYQIVYNNYPMKNLPDMIEELDLHED
# B6: Gpd1R270E-HA (protein, UniProt Q00055 1-391)
# chain: MSAAADRLNLTSGHLNAGRKRSSSSVSLKAAEKPFKVTVIGSGNWGTTIAKVVAENCKGYPEVFAPIVQMWVFEEEINGEKLTEIINTRHQNVKYLPGITLPDNLVANPDLIDSVKDVDIIVFNIPHQFLPRICSQLKGHVDSHVRAISCLKGFEVGAKGVQLLSSYITEELGIQCGALSGANIATEVAQEHWSETTVAYHIPKDFRGEGKDVDHKVLKALFHRPYFHVSVIEDVAGISICGALKNVVALGCGFVEGLGWGNNASAAIQEVGLGEIIRFGQMFFPESREETYYQESAGVADLITTCAGGRNVKVARLMATSGKDAWECEKELLNGQSAQGLITCKEVHEWLETCGSVEDFPLFEAVYQIVYNNYPMKNLPDMIEELDLHED
# B7: Gpd1R270E fused to the Gal4 transactivation domain (protein, UniProt Q00055 1-391)
# chain: MSAAADRLNLTSGHLNAGRKRSSSSVSLKAAEKPFKVTVIGSGNWGTTIAKVVAENCKGYPEVFAPIVQMWVFEEEINGEKLTEIINTRHQNVKYLPGITLPDNLVANPDLIDSVKDVDIIVFNIPHQFLPRICSQLKGHVDSHVRAISCLKGFEVGAKGVQLLSSYITEELGIQCGALSGANIATEVAQEHWSETTVAYHIPKDFRGEGKDVDHKVLKALFHRPYFHVSVIEDVAGISICGALKNVVALGCGFVEGLGWGNNASAAIQEVGLGEIIRFGQMFFPESREETYYQESAGVADLITTCAGGRNVKVARLMATSGKDAWECEKELLNGQSAQGLITCKEVHEWLETCGSVEDFPLFEAVYQIVYNNYPMKNLPDMIEELDLHED
# Experiments:
# [1] = target: T1, Glycerol-3-phosphate dehydrogenase 1 (Gpd1), tagged with GFP or HA at the carboxy-terminus (S. cerevisiae); experiment: co-IP; GFP-TRAP beads on lysates of S. cerevisiae gpd1 cells (Fig. 6A: pex13/gpd1 cells) co-expressing the two tagged proteins; cells grown on NaCl-containing medium (1 M in the legends, 0.8 M in the methods); lysis buffer 20 mM HEPES, 100 mM KAc, 5 mM MgAc pH 7.5; beads 1 h at 4 °C; immunoblot
# [2] = target: Gpd1E195R/R270E, tagged with GFP or HA (S. cerevisiae) (UniProt Q00055); experiment: as above
# [3] = target: T2, Gpd1R270E-GFP (S. cerevisiae); experiment: as above
# [4] = target: T3, Gpd1-GFP-PTS1 (S. cerevisiae); experiment: as above
# [5] = target: T4, ΔN-Gpd1-GFP-PTS1 (S. cerevisiae); experiment: as above
# [6] = target: T5, Pex7 two-hybrid fusion (Gal4 transactivation domain and Gal4 DNA binding domain) (S. cerevisiae); experiment: two-hybrid; Gal4 DNA-binding-domain fusions (bait) in PJ69-4α mated with Gal4 activation-domain fusions in PJ69-4a; growth on SD His- medium with 5 mM 3AT, for Pex21 interactions also lacking adenine; 30 °C
# [7] = target: T6, Pnc1 two-hybrid fusion (Gal4 transactivation domain and Gal4 DNA binding domain) (S. cerevisiae); experiment: as above
# [8] = target: T7, Pex21 fused to the Gal4 DNA binding domain (S. cerevisiae); experiment: as above
binder,measurement,setting,value
B1,binding,[1],binds
B2,binding,[1],no binding
same,binding,[2],binds
B3,binding,[1],binds
same,binding,[3],no binding
same,binding,[4],binds
same,binding,[5],binds
B4,binding,[6],no binding
same,binding,[7],binds
same,binding,[8],no binding
B5,binding,[6],binds
same,binding,[7],binds
same,binding,[8],binds
B6,binding,[1],no binding
B7,binding,[7],no binding

# Reference: publication PMC5314374
